In PubChem BioAssay AID2675 (National Center for Advancing Translational Sciences (NCATS), 2010):
The whole screen tested about 280,000 compounds, of which about 100 (0.036%) were called active. The inconclusive results got no clear call from the source; some entries with a clear call stand among them for comparison. Calls come from the whole dose curve; as a rule, active = well fitted inhibition curve with a large enough effect in the signal ratio, with a control signal flat (not every such curve was filed as active); inconclusive = small, poorly fitted or top-dose-only effect, or effect the other way, or a change in a side signal; inactive = no such curve, though single readings can be large or run the other way; the % refers to the signal ratio. A potency beside an inconclusive call is a rough fit, not a confirmed value. “Side channel” marks fits to a control or component signal instead of the main read-out.

Biological target: Muscleblind-like protein 1 (Homo sapiens) (UniProt Q9NR56)
Assay: qHTS Assay for Inhibitors of MBNL1-poly(CUG) RNA binding
Details: TR-FRET MBNL1-His/biotin-(CUG)12 binding, 665/545 ratio; activity change, negative = inhibition: at 57.5 µM (top of the series)
Outline: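 TR-FRET readout: Ex 340 nm, 665/545 nm emission ratio, normalized to buffer-only (basal) and MBNL1-(CUG)12 controls. Complex of MBNL1-His with Biotin-(CUG)12, compounds 92 nM–58 uM, incubated 60 min at room temperature.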
% is set by controls: 0 for no effect and ±100 for the full control effect; potency is the fitted concentration of half-maximal effect; tags give direction and shape of the fitted curve or compound fluorescence and quenching.

Sequence of UniProt Q9NR56 (Q9NR56 whole entry, looked up): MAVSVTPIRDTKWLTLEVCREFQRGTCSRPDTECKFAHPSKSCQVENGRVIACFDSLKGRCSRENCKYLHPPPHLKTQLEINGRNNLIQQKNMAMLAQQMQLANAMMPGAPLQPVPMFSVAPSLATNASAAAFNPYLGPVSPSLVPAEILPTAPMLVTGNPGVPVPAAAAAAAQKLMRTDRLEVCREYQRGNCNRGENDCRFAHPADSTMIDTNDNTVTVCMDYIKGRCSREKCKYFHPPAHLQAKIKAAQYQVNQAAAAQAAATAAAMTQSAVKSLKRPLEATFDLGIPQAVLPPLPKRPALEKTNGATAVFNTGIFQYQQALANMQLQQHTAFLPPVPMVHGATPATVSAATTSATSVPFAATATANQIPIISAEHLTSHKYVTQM

SMILES | Potency | activity change, negative = inhibition
CC(C)CCN1CCN(Cc2ccc3nsnc3c2)CC1CCO (stereo not given) | inconclusive: 17.8 µM [quencher, side channel, partial curve] | 
CC1CCC(NC(=O)C(NS(=O)(=O)c2cccc3nsnc23)C(C)C)CC1 (stereo not given) | inconclusive: 10 µM [quencher, side channel, partial curve] | 
CC(C)(C)C(=O)Cn1ncc(Br)c(Br)c1=O | inconclusive: 31.6 µM [quencher, partial curve] | 
CCN=C1SC(CC(=O)Nc2ccc(C)cc2)C(=O)N1CC (stereo not given) | inconclusive: 39.8 µM [fluorescent, side channel, single point] | 
CCCNC(=O)CS(=O)(=O)Cc1nc(-c2ccccc2C)oc1C | inconclusive: 2.51 µM [quencher, side channel, single point] | 
Cc1ccc(NC(=O)CCS(=O)(=O)c2cccc3nonc23)c(Br)c1 | inconclusive: 11.2 µM [quencher, partial curve] | 
O=C1c2cccc3cccc(c23)C(=O)N1CCCSc1ncn[nH]1 | inconclusive: 22.4 µM [quencher, side channel, partial curve] | 
Cc1cc(NC(=O)c2ccc3c(c2)C(=O)N(C2CCCCC2)C3=O)no1 | inconclusive: 3.55 µM [quencher, side channel, partial curve] | 
O=[N+]([O-])c1cc(/C=N/n2c(-c3ccncc3)n[nH]c2=S)ccc1Cl | inconclusive: 25.1 µM [quencher, side channel, single point] | 
CCN(CC)CCN(Cc1cc2ccc(C)cc2[nH]c1=O)C(=S)Nc1ccccc1C(=O)OC |  | inactive: -4.47%
Cc1c(NS(=O)(=O)c2ccc(NCCN3CCOCC3)c([N+](=O)[O-])c2)c(=O)n(-c2ccccc2)n1C | inconclusive: 8.91 µM [quencher, partial curve] | 
O=C(Nc1ccc(-c2nc3ncccc3o2)cc1)c1ccc([N+](=O)[O-])o1 | inconclusive: 7.08 µM [quencher, side channel, partial curve] | 
COc1ccc([N+](=O)[O-])cc1NC(=O)C1C2C=CC(C2)C1C(=O)O (stereo not given) | inconclusive: 7.94 µM [quencher, full curve] | 
COc1cc(/C=N/Nc2nc3ccccc3[nH]c2=O)ccc1O | inconclusive: 39.8 µM [quencher, side channel, single point] | 
O=C(Nc1ccccc1-c1ccccc1)c1cc(C(F)(F)F)cc(C(F)(F)F)c1 | inconclusive: 0.447 µM [fluorescent, side channel, partial curve] | 
O=C(Nc1ccc(Cl)cc1)Nc1csc([N+](=O)[O-])c1 | inconclusive: 17.8 µM [quencher, side channel, partial curve] | 
CCC(c1nnnn1CCOC)N(Cc1cc2c(C)cc(C)cc2[nH]c1=O)CC1CCCO1 (stereo not given) | inconclusive: 28.2 µM [quencher, side channel, single point] | 
COC(=O)c1ccc(N=Nc2ccccc2)cc1 |  | inactive: 17.3%
CN1Cc2c(N3CCOCC3)nc3sc(C(=O)c4ccc(Br)cc4)c(N)c3c2CC1(C)C | inconclusive: 14.1 µM [quencher, side channel, partial curve] | 
CC(C)Oc1ccc(CCC(=O)N/N=C/c2ccc3c(c2)OCO3)cc1 |  | inactive: -4.77%

SMILES | Potency | activity change, negative = inhibition
COc1ccc(NC(=O)CN(C)C(=O)c2cc3c(s2)CCCCC3)cc1 |  | inactive: -1.5%
O=C1N=C(O)CN1/N=C/c1ccc(-c2ccc([N+](=O)[O-])cc2)o1 | inconclusive: 7.94 µM [quencher, side channel, partial curve] | 
CCOc1ccc(-c2nn[nH]n2)cc1OCC | inconclusive: 79.4 µM [inhibitor, single point] | 
Cc1cc(NC(=O)CSc2sc3c(O)cc(=O)[nH]c3c2C#N)ccc1Br | inconclusive: 28.2 µM [quencher, single point] | 
COc1cccc(CN2CCN(C3CCN(c4cccc(C)c4C)CC3)CC2CCO)c1 (stereo not given) |  | inactive: 4.16%
O=C(CSc1ncnc2ccccc12)c1ccco1 | inconclusive: 28.2 µM [quencher, side channel, partial curve] | 
C/C(=N/NC(=O)c1cccs1)c1c(C)[nH]n(-c2nc3ccccc3s2)c1=O |  | inactive: 8.34%
CC(C1CC1)N(C(=O)c1ccccc1[N+](=O)[O-])c1ccccc1 (stereo not given) | inconclusive: 25.1 µM [quencher, side channel, partial curve] | 
CCOc1cccc(-c2cc(-c3n[nH]c(=S)n3CC)c3ccccc3n2)c1 |  | inactive: 22.1%
CCCc1cc(C(=O)Nc2ccc(C(=O)c3ccc(F)cc3)cc2)n(C)n1 |  | inactive: 2.71%
NC(=O)CC(NC(=O)c1ccccc1)c1ccc(NCCOc2ccccc2)c([N+](=O)[O-])c1 (stereo not given) | inconclusive: 8.91 µM [quencher, side channel, partial curve] | 
CCOn1c(=O)c(-c2cccc([N+](=O)[O-])c2)[n+]([O-])c2ccccc21 |  | inconclusive: 17.1% [phenotype inactive]
Cc1ccc(N2CCN(S(=O)(=O)N3CCCCC3)CC2)cc1C |  | inactive: -8.48%
CCn1c(C)cc(/C=C2/SC(=S)N(CC(=O)O)C2=O)c1C | inconclusive: 31.6 µM [quencher, side channel, single point] | 
Cc1ccc(-n2c(SCC(=O)Nc3cc(C)on3)nc3c(c2=O)SC(C)C3)cc1 (stereo not given) | inconclusive: 0.708 µM [quencher, side channel, single point] | 
O=C(NC1=NCCS1)c1cc(-c2ccc(F)cc2)nc2ccccc12 |  | inactive: 18.4%
CC1(C)C(c2ccccc2)=[N+]([O-])C2(CCCCC2=O)N1O (stereo not given) | inconclusive: 8.91 µM [quencher, side channel, single point] | 
CCOC(=O)Nc1cccc(OCC(=O)Nc2ccccc2OC)c1 |  | inactive: -17.1%
CS(=O)(=O)c1ccc2nc(NC(=O)c3ccc(N4CCCC4=O)cc3)sc2c1 | inconclusive: 39.8 µM [fluorescent, side channel, single point] | 
COc1cccc(CSc2nnc(CSc3nc4nc(C)cc(C)n4n3)s2)c1 |  | inactive: -13.2%
